Data reported in the antibiotic and cytotoxicity screens of Wong et al. (2023).
Some of the results follow.

Assays:
HSkMC = human skeletal muscle cells; experiment: cytotoxicity call (relative viability < 0.9); details: 10 µM
HepG2 = experiment: cytotoxicity call (relative viability < 0.9); details: 10 µM
S. aureus RN4220 = experiment: growth inhibition call (relative growth <= 0.2); details: 50 µM

| SMILES | cytotoxicity call (HSkMC) | cytotoxicity call (HepG2) | growth inhibition call (S. aureus RN4220) |
| --- | --- | --- | --- |
| COc1ccc(S(=O)(=O)N(C)C[C@H]2Oc3c(NC(=O)NC(C)C)cccc3C(=O)N([C@H](C)CO)C[C@@H]2C)cc1 | inactive | inactive | inactive |
| C[C@@H]1CCCCO[C@H](CN(C)Cc2ccc3c(c2)OCO3)[C@H](C)CN([C@@H](C)CO)C(=O)c2cc(NS(=O)(=O)c3cccs3)ccc2O1 | inactive | inactive | inactive |
| Cc1noc(C)c1NC(=O)N(C)C[C@H]1Oc2ncc(C#CCN(C)C)cc2C(=O)N([C@@H](C)CO)C[C@@H]1C | inactive | inactive | inactive |
| C[C@@H]1CN([C@@H](C)CO)C(=O)c2cc(NC(=O)c3ccncc3)ccc2O[C@H]1CN(C)Cc1ccc(Oc2ccccc2)cc1 | inactive | inactive | inactive |
| C[C@H]1CN([C@@H](C)CO)C(=O)Cc2cc(NC(=O)CCC(F)(F)F)ccc2O[C@@H]1CN(C)S(=O)(=O)c1cn(C)cn1 | inactive | inactive | inactive |
| COc1cccc(S(=O)(=O)N2C[C@H](O)COC[C@@H]3O[C@H](CC(=O)N4CCN(c5ccccc5)CC4)CC[C@H]32)c1 | inactive | inactive | inactive |
| COc1ccc([Si](C)(C)[C@H]2[C@H](CC(=O)N(CCO)Cc3ccccc3)O[C@@]3(C(=O)N(Cc4cccc(N5C(=O)c6cccc7cccc5c67)c4)c4ccccc43)[C@@H]2C)cc1 | inactive | active | inactive |
| CNC(=O)[C@H]1O[C@@H](n2cnc3c(NCc4cccc(I)c4)nc(Cl)nc32)[C@H](O)[C@@H]1O | inactive | inactive | inactive |
| Cc1noc(C)c1NC(=O)N(C)C[C@@H]1Oc2ccc(NC(=O)NC(C)C)cc2CC(=O)N([C@@H](C)CO)C[C@@H]1C | inactive | inactive | inactive |
